Test results reported in USRE49949E1, “Reducing risk of contracting clostridium-difficile associated disease” (The Board of Regents of the Nevada System of Higher …, priority 2012, dated 2024).

Experiments:
C. difficile spores [1] = assay: Outgrowth of C. difficile spores in medium containing CamSA; type: cell-based; conditions: medium containing 200 μM CamSA
C. difficile spores [2] = assay: Recovery of C. difficile cells and spores from intestines and feces of CamSA-treated mice; type: in vivo

For `C[C@H](CCC(=O)Nc1cccc(S(=O)(=O)O)c1)[C@H]1CC[C@H]2[C@@H]3[C@H](O)C[C@@H]4C[C@H](O)CC[C@]4(C)[C@H]3C[C@H](O)[C@]12C` [CamSA, 3-[(3α,7α,12α-trihydroxy-24-oxo-5β-cholan-24-yl)amino]benzenesulfonic acid], the “bacterial growth from spores” value (C. difficile spores [1]) was “reduced but not eliminated”, the “C. difficile vegetative cells compared to spore counts in feces” value (C. difficile spores [2]; 50 mg/kg CamSA) was less than 10% and the “spores recovered from cecum and colon” value (C. difficile spores [2]; 50 mg/kg CamSA, by 96 hours) was “less than 2×10^5 CFUs”. The “spores recovered from cecum and colon before the 96 hour decrease” value (C. difficile spores [2]; 50 mg/kg CamSA, up to 72 hours after spore challenge) was “greater than 12×10^5 CFUs”, the “excretion of ingested spores continued until, post-challenge” value (C. difficile spores [2]; CamSA-treated animals, feces) was “at least 96 hours” and the “start of excretion of ingested spores post-challenge” value (C. difficile spores [2]; CamSA-treated animals, feces) was 2 h.
